Assay results published in PubChem BioAssay AID743255 (National Center for Advancing Translational Sciences (NCATS), 2014).
The campaign covered roughly 390,000 compounds. About 910 (0.23%) were called active. About 5% were inconclusive and are not listed. The call rests on the fitted dose curve; in most records, active means well fitted inhibition curve with a large enough effect; inconclusive means small, poorly fitted or top-dose-only effect; inactive means no such curve, though single readings can be large or run the other way. This is a selection; strong and weak results do not stand in their true shares.

Each compound was assayed against Ubiquitin carboxyl-terminal hydrolase 1 (Homo sapiens) (UniProt O94782) (assay: Inhibitors of USP1/UAF1: Primary Screen). Settings: recombinant USP1/UAF1, Ub-Rhodamine cleavage fluorescence; activity change, negative = inhibition: at 57.1 µM (top of the series).
Summary of the method: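 USP1/UAF1 complex at 1 nM was preincubated with compound for 15 min at room temperature, then Ub-Rho substrate (150nM final) was added. Fluorescence (480/540 nm) was read kinetically, 6 reads every 60 seconds.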
Further: nearly all actives have a fitted effect of over 60% in size.
On the % scale 0 is the no-effect control and ±100 the full control effect; potency means the concentration at half of the fitted maximal effect.

Sequence of UniProt O94782 (O94782 whole entry, looked up): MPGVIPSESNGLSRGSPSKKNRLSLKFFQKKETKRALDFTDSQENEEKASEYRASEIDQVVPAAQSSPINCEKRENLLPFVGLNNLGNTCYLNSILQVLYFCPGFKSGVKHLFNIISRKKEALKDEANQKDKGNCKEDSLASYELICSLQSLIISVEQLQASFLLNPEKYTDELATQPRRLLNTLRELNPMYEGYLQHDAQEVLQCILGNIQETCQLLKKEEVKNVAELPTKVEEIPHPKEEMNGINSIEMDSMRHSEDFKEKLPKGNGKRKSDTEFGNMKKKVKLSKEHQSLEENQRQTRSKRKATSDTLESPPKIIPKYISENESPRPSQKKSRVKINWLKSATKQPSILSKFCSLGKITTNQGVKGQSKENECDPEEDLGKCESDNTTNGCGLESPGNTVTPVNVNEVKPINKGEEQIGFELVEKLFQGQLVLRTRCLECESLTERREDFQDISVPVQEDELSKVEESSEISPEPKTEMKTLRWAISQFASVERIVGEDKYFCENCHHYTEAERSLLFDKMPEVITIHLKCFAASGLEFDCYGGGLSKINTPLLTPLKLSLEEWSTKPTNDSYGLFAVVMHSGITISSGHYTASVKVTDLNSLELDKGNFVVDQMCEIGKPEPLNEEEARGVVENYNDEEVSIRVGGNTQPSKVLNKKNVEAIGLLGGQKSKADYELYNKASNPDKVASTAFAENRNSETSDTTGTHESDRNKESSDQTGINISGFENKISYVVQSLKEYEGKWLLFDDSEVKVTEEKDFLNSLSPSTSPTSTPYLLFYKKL

Question: For `O=C(COc1ccc(F)cc1)Nc1ccc(Cl)c(-c2nc3ccccc3[nH]2)c1`, which “activity change, negative = inhibition” value is on record?
Answer: Its value is inactive: 40.1%.

Question: Which “activity change, negative = inhibition” value does the source give for `C[C@@H]1CN([C@@H](C)CO)C(=O)CCCn2nncc2CO[C@H]1CN(C)Cc1ccc2c(c1)OCCO2` here?
Answer: The value was inactive: -15.7%.

Question: `CSc1ccc(C2C(C(=O)c3ccco3)=C(O)C(=O)N2c2nnc(SC)s2)cc1` (stereo not given) was tested. Which “activity change, negative = inhibition” value did it give?
Answer: The value was inactive: 64.1%.

Question: With `CCN(CC)C(=O)COc1ccc(-c2nnc(Nc3ccc(OC)c(C(=O)NC)c3)c3ccccc23)cc1` as the compound, how does the “activity change, negative = inhibition” value read?
Answer: Its value is inactive: 0.0131%.

Question: Which “activity change, negative = inhibition” value does the source give for `CCc1ccc(NC(=O)c2cc(C)nn2-c2ccccc2)cc1` here?
Answer: Its value is inactive: -19.4%.

Question: For `COc1ccccc1N1CCN(S(=O)(=O)c2c(C)sc3ncn(CC(=O)NCCN(C)C)c(=O)c23)CC1`, which “activity change, negative = inhibition” value is on record?
Answer: Its value is inactive: -25.5%.

Question: Which “activity change, negative = inhibition” value does the source give for `COc1cccc(S(=O)(=O)N(C)C[C@@H]2OCc3cnnn3CCCC(=O)N([C@H](C)CO)C[C@@H]2C)c1` here?
Answer: The value was inactive: -26.2%.

Question: For `C[C@@H]1CN([C@H](C)CO)C(=O)CCCn2cc(nn2)CO[C@H]1CN(C)C(=O)Nc1ccccc1`, which “activity change, negative = inhibition” value is on record?
Answer: Its value is inactive: -23.6%.

Question: Which “activity change, negative = inhibition” value does the source give for `C=CC[C@@H](Cc1ccc(F)cc1)C(=O)OC[C@H]1CCCN1C(=O)[C@@H](CC=C)CC(=O)N[C@H](CO)Cc1ccccc1` here?
Answer: Its value is inactive: -9.05%.

Question: How did the “activity change, negative = inhibition” value turn out when `Cc1ccc(C(C(=O)NCc2ccccc2)N(C(=O)c2ccccn2)c2ccccc2)o1` (stereo not given) was run?
Answer: The value was inactive: -10.4%.

Question: `CCC(=O)Nc1nnc(S(=O)(=O)N2CCCCCC2)s1` was tested. Which “activity change, negative = inhibition” value did it give?
Answer: Its value is inactive: 3.34%.

Question: For `CCOC(=O)c1oc2c(c1C)-c1nn(Cc3ccccc3Cl)cc1CC2`, which “activity change, negative = inhibition” value is on record?
Answer: Its value is inactive: 19.6%.

Question: How did the “activity change, negative = inhibition” value turn out when `CCOC(=O)c1c(C)[nH]c(C(=O)OC/C(O)=C(\C#N)c2nc3ccccc3[nH]2)c1C` was run?
Answer: The value was inactive: -20.1%.

Question: How did the Potency turn out when `Cc1[nH][nH]c(=O)c1C(c1c(C)[nH][nH]c1=O)c1cn(Cc2cccc3ccccc23)c2ccccc12` was run?
Answer: Its Potency is active: 14.1 µM.

Question: How did the “activity change, negative = inhibition” value turn out when `COc1ccc(C(C)n2c(C)c3c(C)nnc(C)c3c2C)cc1` (stereo not given) was run?
Answer: Its value is inactive: -6.19%.

Question: With `CN(C(=O)CN1C(=O)CCSc2ccc(S(=O)(=O)N3CCCC3)cc21)c1ccccc1` as the compound, how does the “activity change, negative = inhibition” value read?
Answer: The value was inactive: -17.1%.

Question: With `COc1ccc(OC)c(/C=C/c2nc3ccccc3[nH]c2=O)c1` as the compound, how does the “activity change, negative = inhibition” value read?
Answer: The value was inactive: 180%.

Question: `COc1ccccc1-n1c(/C=C/c2c(C)n(C)c3ccccc23)nc2ccccc2c1=O` was tested. Which “activity change, negative = inhibition” value did it give?
Answer: Its value is inactive: 44.7%.

Question: Which “activity change, negative = inhibition” value does the source give for `COc1ccc(CN(C(=O)c2cc3ccccc3oc2=O)C2CCS(=O)(=O)C2)cc1OC` (stereo not given) here?
Answer: Its value is inactive: 2.07%.

Question: How did the “activity change, negative = inhibition” value turn out when `CC(C)(C)OC(=O)N[C@H]1C=C[C@H](OC(=O)CC(=O)OCC(F)(F)F)C1` was run?
Answer: The value was inactive: -3.99%.

Question: `Nc1ccc2nc3c(=O)n(C4CCCCC4)c(=O)[nH]c3nc2c1` was tested. Which “activity change, negative = inhibition” value did it give?
Answer: The value was inactive: 102%.

Question: How did the “activity change, negative = inhibition” value turn out when `C[C@@H]1CN([C@H](C)CO)C(=O)CCCn2nncc2CO[C@H]1CN(C)C(=O)c1ccccc1` was run?
Answer: The value was inactive: -30%.

Question: `CCc1ccc(C(=O)CC2(O)C(=O)N(Cc3ccc(C)cc3)c3ccccc32)cc1` (stereo not given) was tested. Which “activity change, negative = inhibition” value did it give?
Answer: The value was inactive: 32.5%.

Question: For `CC(=O)Nc1ccc(N=Cc2c(O)c(C(=O)Nc3ccccc3)cc3ccccc23)cc1`, which “activity change, negative = inhibition” value is on record?
Answer: Its value is inactive: -5.71%.

Question: `CCOC(=O)N(C)C[C@H]1OCc2cnnn2CCCC(=O)N([C@@H](C)CO)C[C@@H]1C` was tested. Which “activity change, negative = inhibition” value did it give?
Answer: The value was inactive: -15.3%.

Question: `COC(=O)c1cc2sccc2n1Cc1nc(-c2cccc(Cl)c2)oc1C` was tested. Which “activity change, negative = inhibition” value did it give?
Answer: Its value is inactive: -24.4%.

Question: Which “activity change, negative = inhibition” value does the source give for `CCN1CCN(CC(O)COc2ccc(C)c(C)c2)CC1` (stereo not given) here?
Answer: Its value is inactive: -14.9%.

Question: `Cc1nn(Cc2ccc(F)cc2)c(C)c1NC(=O)c1noc2c1CCc1ccccc1-2` was tested. Which “activity change, negative = inhibition” value did it give?
Answer: The value was inactive: -25.5%.

Question: `COc1cccc(CNC(=O)CN2C(=O)COc3ccc(S(=O)(=O)N4CCCCC4)cc32)c1` was tested. Which “activity change, negative = inhibition” value did it give?
Answer: Its value is inactive: -4.64%.

Question: For `Oc1[nH]c2ccccc2c1N=Nc1ccccc1F`, which “activity change, negative = inhibition” value is on record?
Answer: Its value is inactive: 279%.

Question: For `CCCNC(=O)Cn1c(=O)/c(=C\c2ccc(-c3ccc([N+](=O)[O-])cc3)o2)s/c1=C\C(=O)C(C)(C)C`, which “activity change, negative = inhibition” value is on record?
Answer: Its value is inactive: 122%.

Question: Which “activity change, negative = inhibition” value does the source give for `COc1ccc2c(C=Nc3c(C)n(C)n(-c4ccccc4)c3=O)c(O)n(Cc3ccco3)c(=O)c2c1` here?
Answer: Its value is inactive: 91%.

Question: For `O=C(C[C@H]1C/C=C\CC[C@H](Cc2ccc(F)cc2)C(=O)OC[C@H]2CCCN2C1=O)N[C@@H](CO)Cc1ccccc1`, which “activity change, negative = inhibition” value is on record?
Answer: The value was inactive: -27.5%.

Question: `C#Cc1ccc([C@H]2C=C(C(=O)NCc3ccccc3)O[C@@H](OCc3ccc(CO)cc3)C2)cc1` was tested. Which “activity change, negative = inhibition” value did it give?
Answer: The value was inactive: -23.5%.

Question: For `O=C(NCc1ccc(OC(F)(F)F)cc1)c1cccc2c1C(=O)c1ccc(N3CCC(Cc4ccccc4)CC3)cc1S2(=O)=O`, which “activity change, negative = inhibition” value is on record?
Answer: The value was inactive: 390%.

Question: `Cc1ccc(-c2c(C(=O)NCc3ccc(F)cc3)oc(=O)c3ccccc23)cc1` was tested. Which “activity change, negative = inhibition” value did it give?
Answer: The value was inactive: -7.82%.

Question: For `O=C1c2ccccc2-c2cccc(NS(=O)(=O)c3ccc(C(F)(F)F)cc3)c21`, which Potency is on record?
Answer: The Potency was active: 28.2 µM.

Question: For `COC(C[C@H](O)C[C@@H](O)COCc1ccccc1)OC`, which “activity change, negative = inhibition” value is on record?
Answer: The value was inactive: -25%.

Question: How did the “activity change, negative = inhibition” value turn out when `CN(C)CCCC1(c2ccc(F)cc2)OCc2cc(C#N)ccc21` (stereo not given) was run?
Answer: Its value is inactive: -14.7%.

Question: `C=CCNC(=O)C12CCC(C)(C(=O)C1Br)C2(C)C` (stereo not given) was tested. Which “activity change, negative = inhibition” value did it give?
Answer: Its value is inactive: -21%.

Question: `COCCCNC(=O)C1CCC(CNS(=O)(=O)c2ccc(OC)cc2)CC1` (stereo not given) was tested. Which “activity change, negative = inhibition” value did it give?
Answer: The value was inactive: -32.3%.

Question: `CC(C)(C)[C@@H]1COC(=O)[C@H](Cc2ccc(F)cc2)CC/C=C\C[C@@H](CC(=O)N(CCO)Cc2ccccc2)C(=O)N1` was tested. Which “activity change, negative = inhibition” value did it give?
Answer: Its value is inactive: -27.3%.

Question: How did the “activity change, negative = inhibition” value turn out when `Cc1ccccc1Nc1c(-c2cccnc2)nc2cccc(C)n12` was run?
Answer: Its value is inactive: -18.6%.

Question: For `CN(c1ccccc1)c1ccc(/C=C(\CCC(=O)O)c2nc3ccccc3s2)cc1[N+](=O)[O-]`, which “activity change, negative = inhibition” value is on record?
Answer: Its value is inactive: -12.7%.

Question: How did the “activity change, negative = inhibition” value turn out when `Cc1ccc(-c2nc(-c3cc4cccc(OCc5cccc(F)c5)c4oc3=O)no2)cc1` was run?
Answer: Its value is inactive: 30.1%.

Question: With `C[C@@H]1CN([C@H](C)CO)C(=O)CCCn2nncc2CO[C@H]1CN(C)C(=O)Nc1ccc2c(c1)OCO2` as the compound, how does the “activity change, negative = inhibition” value read?
Answer: The value was inactive: -15.6%.

Question: `N#C/C(=C/c1ccc(N2CCCCC2)o1)c1cccc(F)c1` was tested. Which Potency did it give?
Answer: Its Potency is active: 17.8 µM.

Question: How did the “activity change, negative = inhibition” value turn out when `O=c1oc(-c2cccc(Cl)c2)nc2c1cnn2-c1ccccc1` was run?
Answer: The value was inactive: 25.3%.

Question: `COc1ccc(NC(=O)[C@@H]2[C@@H]3C(=O)N(C4CCCCC4)C(=O)[C@@H]3C3c4ccccc4C=CN32)cc1` (stereo not given in full) was tested. Which Potency did it give?
Answer: The Potency was active: 31.6 µM.

Question: For `C=CCn1c(O)c(N=Nc2ccccc2O)c2ccccc21`, which “activity change, negative = inhibition” value is on record?
Answer: The value was inactive: 108%.

Question: `O=C(NCc1cc(C(F)(F)F)ccc1Cl)c1cccc2c1C(=O)c1ccc(N3CCC(Cc4ccccc4)CC3)cc1S2(=O)=O` was tested. Which “activity change, negative = inhibition” value did it give?
Answer: The value was inactive: 314%.

Question: `O=C1NC[C@H](c2ccccc2)OC(=O)[C@H](Cc2ccc(F)cc2)CC/C=C/C[C@@H]1CC(=O)N(CCO)Cc1ccccc1` was tested. Which “activity change, negative = inhibition” value did it give?
Answer: The value was inactive: -12%.

Question: With `O=C(N/N=C/c1cc(Cl)cc(Cl)c1O)c1ccncc1` as the compound, how does the Potency read?
Answer: Its Potency is active: 31.6 µM.

Question: Which “activity change, negative = inhibition” value does the source give for `CCO[C@@H]1OC(C(=O)N2CCN(C)CC2)=C[C@H](c2coc3ccccc3c2=O)[C@H]1CCCO` here?
Answer: The value was inactive: -12.8%.

Question: Which “activity change, negative = inhibition” value does the source give for `Cc1cccc(NC(=O)c2oc3ccccc3c2NC(=O)Cc2coc3cc(C)cc(C)c23)c1` here?
Answer: Its value is inactive: 37.1%.
